Laboratory results from PubChem BioAssay AID1458 (National Center for Advancing Translational Sciences (NCATS), 2008).
The whole screen tested about 210,000 compounds, of which about 5,900 (2.8%) were called active. The inconclusive results got no clear call from the source; some entries with a clear call stand among them for comparison. Calls follow the shape of the dose curve; as a rule, active = well fitted activation curve with a large enough effect; inconclusive = small, poorly fitted or top-dose-only effect; inactive = no such curve, though single readings can be large or run the other way. Potencies of inconclusive entries are doubtful fits and often do not repeat.
Potency is read from the fitted curve at half-maximal effect; tags tell the direction and shape of the fitted curve.

Assay: qHTS Assay for Enhancers of SMN2 Splice Variant Expression; also: nearly all actives have a fitted effect of over 55% in size; as to activity change, positive = activation: % of control where 0% means no effect
Settings: HEK293 SMN2-luciferase splicing reporter, luminescence, 30-36 h; activity change, positive = activation: at 46.1 µM (top of the series)
Method in brief: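 HEK293 cells carry an SMN2 […]–luciferase reporter in which exon 7 inclusion puts luciferase in frame. Cells were plated 10-12 h before compound addition, then incubated 30-36 h at 37C. ONE-Glo luminescence was read; sodium butyrate at 4.5 mM final served as control.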
With C=CCn1c(CC#N)nnc1N1CCOCC1 the Potency was inconclusive: 1 µM [activator, full curve].
With Cc1nnc(NC(=O)c2ccccc2)s1 the Potency was inconclusive: 12.6 µM [activator, single point].
With CCN(CC)S(=O)(=O)c1cc(Br)c(C)cc1OC the Potency was inconclusive: 0.02 µM [activator, full curve].
For CS(=O)(=O)N1CCC2(CCCN(Cc3cc(C(F)(F)F)cc(C(F)(F)F)c3)C2)CC1, the “activity change, positive = activation” value was inactive: -12.1%.
For CCOCCCNC(=S)Nc1cc(C)cc(C)c1, the Potency was inconclusive: 0.0891 µM [activator, full curve, poor fit].
For COc1ccccc1-c1noc(-c2cccs2)n1, the Potency was active: 11.2 µM.
For O=C(CSc1nc2ccccc2[nH]1)N/N=C/C=C/c1ccccc1[N+](=O)[O-], the Potency was inconclusive: 0.02 µM [activator, full curve, poor fit].
For CCn1c(C)nc2cc(C(=O)N/N=C(\C)c3ccccc3O)ccc21, the Potency was inconclusive: 3.16 µM [activator, single point].
In the case of O=C(CC(=O)NC1CCCCC1)N/N=C/c1ccccc1Cl, the Potency is reported as inconclusive: 0.316 µM [activator, full curve, poor fit].
In the case of CC1OCC23CC[C@@]4(C)CCC(C)(C)C[C@H]4[C@]2(C)CCC12C3CC[C@@]1(C)C2C(=O)CC(=O)[C@@H]1C (some centres undefined), the “activity change, positive = activation” value is reported as inactive: -5.51%.
With Cc1ccc(-c2nc(NCc3ccco3)n(S(C)(=O)=O)n2)cc1 the Potency was inconclusive: 2.51 µM [activator, single point].
In the case of CCN(CC)C(=O)CSc1nnc(-c2cccc(OC)c2)o1, the Potency is reported as inconclusive: 12.6 µM [activator, partial curve].
In the case of O=c1c(O)c(-c2cc(O)c(O)c(O)c2)oc2cc(O)cc(O)c12, the Potency is reported as “inactive”.
In the case of CCc1ccccc1Nc1nc(N)nc(COC(=O)c2cccn2C)n1, the activity change, positive = activation is reported as inconclusive: 352% [activator].
In the case of COc1ccc(/C(N)=N/OC(=O)Cc2cccs2)cc1, the Potency is reported as inconclusive: 20 µM [activator, single point].
For COc1ccc(NC(=O)CN2CCN(S(=O)(=O)c3ccc(Cl)cc3)CC2)cc1, the Potency was inconclusive: 1.58 µM [activator, full curve].
With COc1ccc(-c2csc(NC(=O)c3ccc(OCC(=O)N4CCOCC4)c(OC)c3)n2)cc1OC the “activity change, positive = activation” value was inactive: -70.8%.
With CC1CCN(C(=S)c2ccccc2O)CC1 the Potency was inconclusive: 12.6 µM [activator, single point].
For O=C(CCCCCNc1nc(=S)[nH]c2ccccc12)NCCc1ccc(Cl)cc1, the “activity change, positive = activation” value was inactive: -9.2%.
With CCCn1c(SCC(=O)NC)nnc1C(C)C the Potency was inconclusive: 35.5 µM [activator, single point].
In the case of O=C(CSc1nc2ccccc2o1)NCc1ccc2c(c1)OCO2, the Potency is reported as inconclusive: 35.5 µM [activator, single point].
With CCOc1ccc2nc(N3CCOCC3)nc(C)c2c1 the Potency was active: 2.82 µM.
For O=c1cc(-c2ccccc2)oc2cc(O)c(O)cc12, the Potency was inconclusive: 31.6 µM [activator, single point].
In the case of O=[N+]([O-])c1ccc(NC(=S)N2CCc3ccccc3C2)cc1, the Potency is reported as inconclusive: 0.708 µM [activator, full curve].
For COc1cc(/C=N/O)ccc1OCc1ccc([N+](=O)[O-])cc1, the Potency was active: 14.1 µM.
For NC(=O)CSc1nc2c(oc3ccccc32)c(=O)n1-c1ccccc1F, the “activity change, positive = activation” value was inactive: -3.49%.
With O=c1[nH]c2ccccc2c2ccccc12 the Potency was “inactive”.
In the case of COC(=O)[C@@]1(Cc2ccc(OC)cc2)[C@H]2c3cc(C(=O)N4CCCC4)n(CCF)c3C[C@H]2CN1C(=O)c1ccccc1, the “activity change, positive = activation” value is reported as inactive: -7.13%.
For c1ccc(CNc2nc3ccccc3c3nc(-c4ccccc4)nn23)cc1, the “activity change, positive = activation” value was inactive: 1.92%.
For N#Cc1c(NC(=O)c2ccncc2)sc2c1CCC2, the Potency was inconclusive: 14.1 µM [activator, single point].
In the case of O=C(c1cccs1)C1C(c2ccc(Br)cc2)NC(=S)NC1(O)C(F)(F)F (centres undefined), the Potency is reported as active: 12.6 µM.
For O=c1c(O)c(-c2cccs2)oc2ccc(Cl)cc12, the Potency was inconclusive: 35.5 µM [activator, partial curve].
In the case of CCNc1c([N+](=O)[O-])ncn1C, the Potency is reported as inconclusive: 0.0141 µM [activator, full curve].
With COC(=O)c1ccccc1NC(=O)c1nc2nc(C)cc(C)n2n1 the Potency was inconclusive: 0.562 µM [activator, full curve].
With CCCCc1ccc(NC(=O)CC(C)C)cc1 the Potency was inconclusive: 11.2 µM [activator, partial curve].
With O=C(Cc1sc(-c2ccccc2)nc1-c1ccccc1)Nc1ccccc1 the “activity change, positive = activation” value was inactive: 11.7%.
In the case of COc1ccc(OCCn2c(C3CC(=O)N(c4ccc(F)cc4)C3)nc3ccccc32)cc1 (centres undefined), the “activity change, positive = activation” value is reported as inactive: -4.17%.
With CCS(=O)(=O)Nc1ccc(-c2ccc(NS(=O)(=O)CC)c(OC)c2)cc1OC the “activity change, positive = activation” value was inactive: -15.6%.
In the case of Cc1cc(O)c(NC(=O)c2ccc(C)c([N+](=O)[O-])c2)cc1C, the Potency is reported as inconclusive: 2 µM [activator, full curve].
In the case of O=C(Cn1c(=O)n(Cc2ccco2)c(=O)c2cccnc21)Nc1ccccc1F, the “activity change, positive = activation” value is reported as inactive: -4.99%.
With CCOC(=O)c1ccc(NC(=O)CC2S/C(=N/N=C/c3c[nH]c4ccccc34)NC2=O)cc1 (centres undefined) the Potency was inconclusive: 35.5 µM [activator, single point].
With O=C(CN1CCN(c2ccc(O)cc2)CC1)Nc1cc(S(=O)(=O)N2CCCCC2)ccc1Cl the “activity change, positive = activation” value was inactive: -29.8%.
With COc1ccc(S(=O)(=O)N(Cc2nc(-c3ccc(C)cc3)no2)C2CCCCC2)cc1 the “activity change, positive = activation” value was inactive: -10.6%.
For Cc1cccc(/C=C/c2ccccc2)n1, the Potency was inconclusive: 15.8 µM [activator, full curve, poor fit].
With COc1ccc(-c2nnc(-c3cc4ccccc4oc3=O)o2)cc1 the activity change, positive = activation was inconclusive: 36.4% [activator].
With COc1ccccc1/C=C/C1(C(=O)NC2CCCC2)CC(=O)N1c1ccc(C)cc1 (centres undefined) the Potency was inconclusive: 25.1 µM [activator, single point].
With COc1cc(Cl)c(C)cc1NC(=O)CCc1nc2cccnc2n1-c1ccccc1 the “activity change, positive = activation” value was inactive: -11.5%.
For COc1ccc(N2CCN(C(=O)C(CCSC)N=C3NS(=O)(=O)c4ccccc43)CC2)cc1 (centres undefined), the Potency was inconclusive: 0.501 µM [activator, full curve, poor fit].
With CCCCCCOc1ccc(OC(=O)c2cccnc2)cc1 the Potency was inconclusive: 1.58 µM [activator, partial curve].
For Cc1cc(C)c(C#N)c(SCc2ccc3c(c2)OCO3)n1, the Potency was inconclusive: 0.01 µM [activator, full curve, poor fit].
In the case of COC(=O)c1sc(-c2ccccc2)cc1NC(=O)c1cccc(F)c1, the “activity change, positive = activation” value is reported as inactive: 4.84%.
In the case of CC1CCCC(=C\c2ccccc2)/C1=N/O (centres undefined), the “activity change, positive = activation” value is reported as inactive: -4.93%.
With CCCOc1ccc(N2C(=O)CC(N(Cc3ccc(OC)cc3)C(=S)Nc3ccccc3)C2=O)cc1 (centres undefined) the Potency was inconclusive: 0.0079 µM [activator, full curve, poor fit].
For O=C(/C=C\Nc1ccc2c(c1)OCO2)c1ccc(Cl)s1, the Potency was active: 3.55 µM.
With O=C(O)CCCC(=O)NCc1ccccn1 the Potency was inconclusive: 0.316 µM [activator, full curve].
For CCc1cc2cc(C)cc(C)c2[nH]c1=S, the “activity change, positive = activation” value was inactive: 0.0488%.
With c1ccc(N/N=C(\Cc2nc3ccccc3[nH]2)c2ccccc2)cc1 the Potency was active: 12.6 µM.
In the case of CC1CC(C)CN(CCCNC(=O)c2csc3c2CCCC3)C1 (centres undefined), the Potency is reported as inconclusive: 0.0035 µM [activator, full curve, poor fit].
With CC1(OC(=O)c2ccco2)C(=O)C2=COC(C3CC3)=CC2=C(Br)C1=O (centres undefined) the “activity change, positive = activation” value was inactive: -6.44%.
For COc1ccc(C(=O)N2CCC[C@@]3(CCN(Cc4ccccc4OC)C3)C2)cc1, the “activity change, positive = activation” value was inactive: -0.698%.
With COC(=O)C(C(=O)OC)C(C(C)C)C(C(=O)OC)C(=O)OC the Potency was inconclusive: 1.58 µM [activator, partial curve].
For CCOC(=O)c1c(Oc2ccc(C(=O)OC)cc2)nnc(-c2ccccc2)c1-c1ccccc1, the Potency was inconclusive: 31.6 µM [activator, single point].
For COc1ccc(CCNC(=O)c2ccc3c(c2)N(Cc2cccc(C)c2)C(=O)c2ccccc2S3(=O)=O)cc1OC, the Potency was inconclusive: 11.2 µM [activator, partial curve, poor fit].
With CCOc1ccccc1-c1nc(-c2ccc(-c3ccccc3)nc2OCC)no1 the “activity change, positive = activation” value was inactive: 1.44%.
With O=C(N/N=C/c1ccc(O)cc1)c1csc2ccccc12 the “activity change, positive = activation” value was inactive: 4.05%.
With O=C(N/N=C/c1ccc(Cl)cc1)Nc1ccccc1 the Potency was inconclusive: 28.2 µM [activator, single point].
In the case of COc1ccccc1-c1cc(C(F)(F)F)nc(S(=O)(=O)CCCC(=O)N2CCCCC2C)n1 (centres undefined), the Potency is reported as inconclusive: 25.1 µM [activator, single point].
In the case of O=C(OCC(=O)N1CCCCCC1)c1n[nH]c(=O)c2ccccc12, the Potency is reported as inconclusive: 0.631 µM [activator, partial curve, poor fit].
In the case of CN(CCc1ccccn1)S(=O)(=O)c1ccc(F)cc1, the Potency is reported as inconclusive: 35.5 µM [activator, single point].
In the case of COc1cc(NC(=S)NC(=O)c2ccc(C(C)(C)C)cc2)ccc1NC(=O)c1cccs1, the Potency is reported as inconclusive: 0.794 µM [activator, single point].
For COc1cc(-c2nc3ccccc3c(=O)n2N)cc(OC)c1OC, the Potency was inconclusive: 20 µM [activator, partial curve, poor fit].
In the case of CC1CCc2c(sc3nnn(Cc4ccc(F)cc4)c(=O)c23)C1 (centres undefined), the “activity change, positive = activation” value is reported as inactive: -6.61%.
For Cc1ccccc1OCCCC(=O)Nc1ccc2c(c1)OCO2, the Potency was inconclusive: 5.62 µM [activator, single point].
For O=C(CSc1nnc(CNC(=O)c2cccs2)o1)c1ccccc1, the Potency was inconclusive: 2.24 µM [activator, single point].
